Measurements taken from article PMC8574189.

Target: T1, neutravidin tetramer, P02701
T1 chain: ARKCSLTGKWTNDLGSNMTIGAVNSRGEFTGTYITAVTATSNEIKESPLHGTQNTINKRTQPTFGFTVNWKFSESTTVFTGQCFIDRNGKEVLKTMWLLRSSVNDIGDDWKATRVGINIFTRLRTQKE
Experiment: native MS; nanoelectrospray, 200 mM ammonium acetate, or charge-reduced in 160 mM ammonium acetate with 40 mM TEAA or EDDA; 5–10 μM protein complex; cyclic IMS (cIMS) and Synapt G2; TRAP with 14 equivalents of trp
Conditions: remark: other sources report otherwise

B1: neutravidin tetramer, P02701 25-152 (natural protein)
chain: T1 chain
In the case of B1, the stoichiometry N is reported as 4.
